{"source": "PubChem BioAssay AID651582", "about": "(Sanford-Burnham Center for Chemical Genomics, 2012)", "note": "This is one part of the list. The main result of the screen is listed elsewhere. These columns were measured beside it and carry no call. The list favours compounds with an active or inconclusive main result."}
{"assay": "inhibitors of triacylglycerol accumulation, primary screen, cell-based, uHTS, fluorescence, H9c2 (AID 651582)", "conditions": "H9c2 cells, Nile Red lipid (TAG) fluorescence; measured here:; at 12.5 µM; cells loaded with 200 µM oleic acid", "units": {"DAPI nuclei signal change (viability), lower = more cytotoxic": "%"}}
{"smiles": "O=C1N[C@@H](Cc2ccccc2)COC(=O)[C@@H](Cc2ccc(F)cc2)CC/C=C/C[C@@H]1CC(=O)N(CCO)Cc1ccccc1", "DAPI nuclei signal change (viability), lower = more cytotoxic": -22.4}
{"smiles": "CCOc1cc(C(=O)N/N=C/c2cn(-c3ccccc3)nc2-c2cc3ccccc3o2)cc(OCC)c1OCC", "DAPI nuclei signal change (viability), lower = more cytotoxic": -3.56}
{"smiles": "CCCc1nc2oc3c(NCCCN(C)C)ncnc3c2c2c1CCCC2", "DAPI nuclei signal change (viability), lower = more cytotoxic": -25.3}
{"smiles": "Cc1ccc(Nc2nc(N)nc(CCl)n2)c(C)c1", "DAPI nuclei signal change (viability), lower = more cytotoxic": -40.2}
{"smiles": "Cc1cccc(C(=O)N[C@H](C(=O)Nc2ncc(C)s2)C(C)C)c1", "DAPI nuclei signal change (viability), lower = more cytotoxic": -43.5}
{"smiles": "COc1ccc(/C=C/C(=O)c2cc(F)ccc2OC(=O)c2ccccc2OC)cc1OC", "DAPI nuclei signal change (viability), lower = more cytotoxic": -41.1}
{"smiles": "CCN(CC)c1ccc(N=Cc2ccc([N+](=O)[O-])o2)cc1", "DAPI nuclei signal change (viability), lower = more cytotoxic": -11}
{"smiles": "Cc1cccc2sc(NC(=O)CN(C)S(=O)(=O)c3ccc(Br)s3)nc12", "DAPI nuclei signal change (viability), lower = more cytotoxic": 3.08}
{"smiles": "Cc1ccc(Sc2ccc(NC(=O)CCl)cc2)cc1C", "DAPI nuclei signal change (viability), lower = more cytotoxic": -40.5}
{"smiles": "COc1cc(C(=O)N2CCN(c3cccc(C)c3C)CC2)cc(OC)c1OC", "DAPI nuclei signal change (viability), lower = more cytotoxic": -32.1}
{"smiles": "CC(=O)NC(c1ccc(C)cc1)c1cc(Cl)c2cccnc2c1O", "note": "(stereo unspecified)", "DAPI nuclei signal change (viability), lower = more cytotoxic": -15.1}
{"smiles": "COc1ccc2[nH]c3c(c2c1)CCN1C(=O)C(CC(=O)NCc2cccc(C(F)(F)F)c2)C[C@H](C(=O)N2CCCCC2)[C@@]31CCc1ccccc1", "note": "(stereo partly specified)", "DAPI nuclei signal change (viability), lower = more cytotoxic": -35.4}
{"smiles": "O=C(C#Cc1ccccc1)c1ccccc1", "DAPI nuclei signal change (viability), lower = more cytotoxic": -43}
{"smiles": "CCOC(=O)N1CCC(N2Cc3cccc(C(=O)Nc4ccc(CC)cc4)c3C2=O)CC1", "DAPI nuclei signal change (viability), lower = more cytotoxic": -0.254}
{"smiles": "NC(c1csc(Nc2ccc(C(=O)c3ccccc3)cc2)n1)C1CCCCC1", "note": "(stereo unspecified)", "DAPI nuclei signal change (viability), lower = more cytotoxic": 10.5}
{"smiles": "CCN(CC)CCNc1cc(C)nc2c1C(=O)C(=O)C=C2N1CCCCC1", "DAPI nuclei signal change (viability), lower = more cytotoxic": -45.4}
{"smiles": "COc1ccc(NS(=O)(=O)c2cccc(C(=O)N/N=C/c3cn(-c4ccccc4)nc3-c3ccccc3)c2)cc1", "DAPI nuclei signal change (viability), lower = more cytotoxic": -8.56}
{"smiles": "CCc1nn2c(N3CCOCC3)cc(C)nc2c1-c1ccc(F)cc1", "DAPI nuclei signal change (viability), lower = more cytotoxic": -2.93}
{"smiles": "COc1ccc(-n2ccnc2SCC(=O)NC2CCCC2)c(OC)c1", "DAPI nuclei signal change (viability), lower = more cytotoxic": -40.1}
{"smiles": "COc1ccc2[nH]c3c(c2c1)CCN1C(=O)C(CC(=O)NCC24CC5CC(CC(C5)C2)C4)C[C@H](C(=O)N2CCOCC2)[C@@]31CCC1CCCC1", "note": "(stereo partly specified)", "DAPI nuclei signal change (viability), lower = more cytotoxic": -12.2}
{"smiles": "CC(=O)Nc1cccc(-c2ccnc3c2CC(C)(C(=O)NCc2ccc(N(C)C)cc2)O3)c1", "note": "(stereo unspecified)", "DAPI nuclei signal change (viability), lower = more cytotoxic": -27.6}
{"smiles": "c1ccc(-[n+]2nc(Nc3cccc4ccccc34)sc2-c2c3ccccc3cc3ccccc23)cc1", "DAPI nuclei signal change (viability), lower = more cytotoxic": 2.33}
{"smiles": "CCN(CC)CCNC(=O)c1cc2c(-c3ccc(Cl)cc3)nn(C)c2s1", "DAPI nuclei signal change (viability), lower = more cytotoxic": 67.6}
{"smiles": "CCN1CCN(Cc2ccc(NC(=O)c3cc(NC(=O)c4cc5cccc(OC)c5o4)cc(OC)c3)cc2C(F)(F)F)CC1", "DAPI nuclei signal change (viability), lower = more cytotoxic": 19.8}
{"smiles": "Cn1nnc2c[n+](CC(=O)c3ccc(Cl)cc3)cc(Br)c21", "DAPI nuclei signal change (viability), lower = more cytotoxic": -28.6}
{"smiles": "CC(C)NS(=O)(=O)c1ccc(CCC(=O)Nc2cc(Cl)ccc2Oc2ccccc2)cc1", "DAPI nuclei signal change (viability), lower = more cytotoxic": -9.84}
{"smiles": "CCN(CC)CCOC(=O)c1ccc(N/C=C(/C#N)c2nc(-c3ccc(OC)c(OC)c3)cs2)cc1", "DAPI nuclei signal change (viability), lower = more cytotoxic": 18.1}
{"smiles": "COc1ccc(COc2cc(-c3cccc(OC)c3)nc3ccc(NC(=O)c4ccc(OC)cc4)cc23)cc1", "DAPI nuclei signal change (viability), lower = more cytotoxic": -20}
{"smiles": "Cc1nn(-c2cccc(Cl)c2)c2nc(-c3ccncc3)cc(C(=O)N3CCOCC3)c12", "DAPI nuclei signal change (viability), lower = more cytotoxic": -4.57}
{"smiles": "CCCCN(C)C(=O)c1ccc(Nc2nc(C(N)Cc3ccc(C(F)(F)F)cc3)cs2)nc1", "note": "(stereo unspecified)", "DAPI nuclei signal change (viability), lower = more cytotoxic": -1.18}
{"smiles": "COc1ccc(CC(N)c2csc(NC(=O)Nc3ccccc3C(C)C)n2)cc1", "note": "(stereo unspecified)", "DAPI nuclei signal change (viability), lower = more cytotoxic": -23.6}
{"smiles": "Cc1cc(C)c(NC(=O)CSc2nc3ccc(NC(=O)CSc4nnnn4Cc4ccccc4)cc3s2)c(C)c1", "DAPI nuclei signal change (viability), lower = more cytotoxic": 6.33}
{"smiles": "O=C(Nc1ccc(-c2csc(Nc3ccc(Cl)cc3)n2)cc1)c1cc([N+](=O)[O-])cc(C(F)(F)F)c1", "DAPI nuclei signal change (viability), lower = more cytotoxic": 7.77}
{"smiles": "COc1ccc(CCNc2c3ccccc3nc3ccccc23)cc1OC", "DAPI nuclei signal change (viability), lower = more cytotoxic": -31.9}
{"smiles": "O=C(N/N=C(\\c1ccccc1)c1ccccn1)c1cccc([N+](=O)[O-])c1", "DAPI nuclei signal change (viability), lower = more cytotoxic": -27.3}
{"smiles": "COc1ccc(OC)c(NS(=O)(=O)c2ccc(N3CCCC3=O)cc2)c1", "DAPI nuclei signal change (viability), lower = more cytotoxic": -5.5}
{"smiles": "CCOC(=O)CCS(=O)(=O)c1nc(-c2ccccc2)cc(C(F)(F)F)n1", "DAPI nuclei signal change (viability), lower = more cytotoxic": -43.9}
{"smiles": "Cc1cc(C)c2nc(NC(=O)c3ccc([N+](=O)[O-])o3)sc2c1", "DAPI nuclei signal change (viability), lower = more cytotoxic": -30.9}
{"smiles": "O=C1C(Cl)=C(NCc2ccco2)C(=O)c2ccccc21", "DAPI nuclei signal change (viability), lower = more cytotoxic": -47.2}
{"smiles": "O=C(NCc1nnnn1-c1ccc(F)cc1)c1ccc([N+](=O)[O-])o1", "DAPI nuclei signal change (viability), lower = more cytotoxic": -49.1}
{"smiles": "COc1ccc(-c2cc(NC=O)c3ncc(-c4ccc(OC)c(OC)c4)n3c2)cc1", "DAPI nuclei signal change (viability), lower = more cytotoxic": -44.7}
{"smiles": "C=C1C(=O)C23C(O)C1CCC2C12CCCC(C)(COC(C)=O)C1C(O)C3(O)OC2", "note": "(stereo unspecified)", "DAPI nuclei signal change (viability), lower = more cytotoxic": -44.1}
{"smiles": "CC(C)(C)NC(=O)C(c1ccc(-c2ccccc2)cc1)N(C[C@H]1CC[C@@H]([C@@H]2CC[C@H](CO)O2)O1)C(=O)c1ccc2ccccc2c1", "note": "(stereo partly specified)", "DAPI nuclei signal change (viability), lower = more cytotoxic": -0.194}
{"smiles": "CC(C)CCNCC(O)CON=C1c2ccccc2-c2ccccc21", "note": "(stereo unspecified)", "DAPI nuclei signal change (viability), lower = more cytotoxic": -17.4}
{"smiles": "C[C@@H]1CN([C@@H](C)CO)C(=O)c2cccc(NC(=O)Nc3ccc(F)cc3)c2O[C@@H]1CN(C)Cc1ccc(Oc2ccccc2)cc1", "DAPI nuclei signal change (viability), lower = more cytotoxic": 9.25}
{"smiles": "CCOC(=O)Oc1c(OC)cc(C(=O)O[C@@H]2C[C@@H]3CN4CCc5c([nH]c6cc(OC)ccc56)[C@H]4C[C@@H]3[C@H](C(=O)OC)[C@H]2OC)cc1OC", "DAPI nuclei signal change (viability), lower = more cytotoxic": -3.72}
